This note sets out measurements from paper PMC4336329 (PLoS ONE, 2015).

About 14,000 (4.5%) of roughly 310,000 compounds showed an effect of 50% or more. Effects have a minus sign here. Some of the results follow. Where a SMILES comes first, the peptide text is derived from it. The star is where a group is joined. Boc = CC(C)(C)OC(=O)*; OBn = c1ccc(CO*)cc1
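Also: peak tail current of the secondary pulse compared with the same well before compound.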

The target in the experiment is human ether-à-go-go-related gene (hERG) potassium channel (human, UniProt Q12809). In words: primary screen, population patch clamp on CHO cells stably expressing hERG.
Sequence of human ether-à-go-go-related gene (hERG) potassium channel (Q12809 whole entry, looked up): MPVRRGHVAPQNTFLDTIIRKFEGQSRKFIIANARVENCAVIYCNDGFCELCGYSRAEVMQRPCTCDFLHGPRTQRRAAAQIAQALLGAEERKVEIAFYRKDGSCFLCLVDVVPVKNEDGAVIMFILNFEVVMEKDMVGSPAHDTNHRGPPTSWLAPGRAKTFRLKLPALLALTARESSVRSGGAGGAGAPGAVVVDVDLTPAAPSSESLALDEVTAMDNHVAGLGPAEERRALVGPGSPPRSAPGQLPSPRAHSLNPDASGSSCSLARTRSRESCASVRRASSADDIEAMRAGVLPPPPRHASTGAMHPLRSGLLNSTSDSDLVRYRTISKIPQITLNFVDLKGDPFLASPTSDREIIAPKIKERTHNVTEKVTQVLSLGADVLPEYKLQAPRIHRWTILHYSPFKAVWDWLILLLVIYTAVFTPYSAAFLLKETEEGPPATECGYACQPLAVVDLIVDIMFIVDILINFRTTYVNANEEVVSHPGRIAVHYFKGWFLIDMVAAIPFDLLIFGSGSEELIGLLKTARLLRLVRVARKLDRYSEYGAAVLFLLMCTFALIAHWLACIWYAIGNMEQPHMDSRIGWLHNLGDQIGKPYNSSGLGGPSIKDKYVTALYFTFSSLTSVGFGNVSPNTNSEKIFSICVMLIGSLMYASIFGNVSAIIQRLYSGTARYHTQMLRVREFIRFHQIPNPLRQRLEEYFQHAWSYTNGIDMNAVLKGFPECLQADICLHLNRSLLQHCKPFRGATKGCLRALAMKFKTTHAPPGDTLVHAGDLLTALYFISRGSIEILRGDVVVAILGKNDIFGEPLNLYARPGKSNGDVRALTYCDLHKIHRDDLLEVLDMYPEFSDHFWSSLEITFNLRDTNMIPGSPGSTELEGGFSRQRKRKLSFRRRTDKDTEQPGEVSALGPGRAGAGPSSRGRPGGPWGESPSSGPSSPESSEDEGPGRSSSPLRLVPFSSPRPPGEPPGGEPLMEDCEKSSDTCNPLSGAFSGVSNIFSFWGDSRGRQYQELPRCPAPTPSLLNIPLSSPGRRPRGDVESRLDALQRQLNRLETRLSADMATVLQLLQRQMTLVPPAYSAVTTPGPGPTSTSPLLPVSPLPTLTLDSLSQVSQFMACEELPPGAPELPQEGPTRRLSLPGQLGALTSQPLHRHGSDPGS
On to `COc1ccc(CCNC(=O)c2cc3sccc3n2C)cc1OC`, for which the “hERG current change (%, negative = inhibition) at 10uM” value is reported as -6.67%. As to `CCCC(=O)Nc1ccc(NC(=O)c2ccccc2OC)cn1`, the “hERG current change (%, negative = inhibition) at 10uM” value was -8.93%. Regarding `Cc1noc(NS(=O)(=O)c2ccc(N/C=C\C(=O)c3cccs3)cc2)c1C`, the “hERG current change (%, negative = inhibition) at 10uM” value was 19.1%. With `Cc1ccc(C(=O)OCC(=O)NCc2ccco2)cc1C` the figure was 4.55%. With `CCN(CC)S(=O)(=O)c1ccc2c3c(cccc13)C(=O)N2` the figure was -18.2%; with `O=C(COc1ccc(-c2ccccc2)cc1)NNC(=O)NC1CCCCC1`, -5.8%; with `CCOC(=O)CNC(=O)c1ccccc1`, 0.49%.

On to `Cc1c(C#N)c(O)n(CCO)c(=O)c1N=Nc1ccc(S(N)(=O)=O)cc1`, for which the “hERG current change (%, negative = inhibition) at 10uM” value is listed as -8.16%. For the compound `CCc1nc(SCc2ccc(Cl)cc2)n[nH]1`, the “hERG current change (%, negative = inhibition) at 10uM” value is on record as 12%. Turning to `Cc1cccc2cc3c(nc12)-c1ccccc1C3=O`, the “hERG current change (%, negative = inhibition) at 10uM” value turned out to be 11.4%. Take `CCN(CC)c1ccc([N+](=O)[O-])cc1C(=O)N1CCOCC1`: the “hERG current change (%, negative = inhibition) at 10uM” value turned out to be 5.92%. Take `Cc1ccccc1NC(=O)Nc1nnc(CC(=O)NCc2ccccc2)s1`: the “hERG current change (%, negative = inhibition) at 10uM” value is on record as -19.9%. With `CCc1cccc2c1NC(=O)C21N2CCCC2C(C(=O)c2ccc3ccccc3c2)C12C(=O)Nc1ccccc12` (stereo not shown) the figure was 0.132%; with `COc1ccc(Nc2nc(Cl)nc(NCCO)n2)cc1`, -8.87%. In the case of `CC(C)C(NC(=O)OC(C)(C)C)C(=O)NC(CCC(=O)OCc1ccccc1)C(N)=O` (stereo not drawn) (Boc-Val-Glu(OBn)-NH2; configuration not given here), the “hERG current change (%, negative = inhibition) at 10uM” value is listed as 20.2%. As for `Cc1ccccc1N/C(=N/S(=O)(=O)c1cc(F)ccc1F)c1ccccc1`, the “hERG current change (%, negative = inhibition) at 10uM” value is listed as -20.5%. With `CCOc1cc(S(=O)(=O)NCc2ccncc2)ccc1Cl` the figure was -10.8%; with `O=C(CNC(=O)c1cccc(Cl)c1)Nc1ccc(F)c(F)c1F`, 16.8%. On to `CC1(C)Cc2c(sc3nc(SCC(=O)O)nc(N)c23)CO1`, for which the “hERG current change (%, negative = inhibition) at 10uM” value turned out to be 18.9%. Take `CC1CCN(C(=O)CSc2nnc3c(n2)[nH]c2ccc(F)cc23)CC1`: the “hERG current change (%, negative = inhibition) at 10uM” value is reported as -11.3%. On to `Cc1cc(NC(=O)c2ccc(N3C(=O)C4C5C=CC(C5)C4C3=O)cc2)no1` (stereo not shown), for which the “hERG current change (%, negative = inhibition) at 10uM” value stood at 8.53%. As to `CCN(CC(=O)Nc1ccccc1C(F)(F)F)C(=O)c1cc(S(=O)(=O)N2CCCCCC2)ccc1OC`, the “hERG current change (%, negative = inhibition) at 10uM” value is on record as -6.49%. As for `Cc1cc(C)cc(C(=O)NC(=S)Nc2ccc3c(c2)OCCO3)c1`, the figure is -5.1%. With `Cc1cccc(C2NC(c3cccc(C)c3)C([N+](=O)[O-])C(C)(C)C2[N+](=O)[O-])c1` (stereo not shown), the “hERG current change (%, negative = inhibition) at 10uM” value came to 0.615%.

In the case of `N#Cc1c(-c2ccccc2)c(-c2ccccc2)n(Cc2ccco2)c1NC(=O)c1cccs1`, the “hERG current change (%, negative = inhibition) at 10uM” value is given as 12.6%. For the compound `O=C(COC(=O)CNC(=O)c1cccc(F)c1)NCCC1=CCCCC1`, the “hERG current change (%, negative = inhibition) at 10uM” value was 13.1%. For the compound `Cc1cccc(C)c1NC(=O)CN(C)C(=O)C1CC(=O)N(c2cccc3ccccc23)C1` (stereo not shown), the “hERG current change (%, negative = inhibition) at 10uM” value is reported as -2.15%.

On to `Cc1cc(=O)n2nc(N3CCC(C(=O)NCc4ccccc4)CC3)sc2n1`, for which the “hERG current change (%, negative = inhibition) at 10uM” value was -3.68%. In the case of `O=C(c1ccc(C(=O)N2CCCc3ccccc32)s1)N1CCCc2ccccc21`, the “hERG current change (%, negative = inhibition) at 10uM” value is given as -17.1%. Consider `Cc1cc(C)n2nc(SCC(=O)c3cc(C)n(CC4CCCO4)c3C)nc2n1` (stereo not shown), for which the “hERG current change (%, negative = inhibition) at 10uM” value was found to be 1.05%. With `COc1ccc(CCN(C)C(=S)Nc2cccc(C)c2)cc1OC`, the “hERG current change (%, negative = inhibition) at 10uM” value was found to be 5.19%.

`CC(C)n1cc(C(=O)N2CCCC(N3CCN(c4cccc(Cl)c4)CC3)C2)cn1` (stereo not shown): the “hERG current change (%, negative = inhibition) at 10uM” value was -38%. As for `COc1ccc(/C=N/Nc2nc(NCc3ccco3)nc(Nc3ccc(OC)cc3)n2)cc1`, the figure is -5.24%; as for `Clc1cccc(-c2nnc(SCc3nc4ccccc4[nH]3)n2Cc2ccco2)c1`, -34.4%; as for `COc1ccc(-c2c3c(cc(C)[n+]2[O-])oc2ccc(OC)cc23)cc1`, 3.19%. With `NC(=O)C1=C[C@H](C2CCCCC2)C[C@H](OCc2ccc(CO)cc2)O1` the figure was 2.51%; with `COc1cc(/C=C/C(=O)OCC(=O)Nc2ccc3c(c2)OCCO3)ccc1OCC#N`, 3.1%. Take `CCN(CC)CCN(Cc1cc2cc(C)c(C)cc2[nH]c1=O)C(=S)NCc1ccco1`: the “hERG current change (%, negative = inhibition) at 10uM” value is recorded as -52.8%.

On to `CC1CC(C)(C)NC(=S)N1CCCC(=O)Nc1ccc(Br)cc1` (stereo not shown), for which the “hERG current change (%, negative = inhibition) at 10uM” value is reported as -7.58%.

Regarding `O=c1[nH]n(-c2ccc(Cl)cc2)c(=O)c(Cl)c1Cl`, the “hERG current change (%, negative = inhibition) at 10uM” value is on record as 11.4%. With `CCN(C(=O)CN1CCCCC1)c1c(N)n(Cc2ccccc2)c(=O)[nH]c1=O`, the “hERG current change (%, negative = inhibition) at 10uM” value is on record as 4.35%. As for `CCn1c(SCC(=O)Nc2ccc(C(C)=O)cc2)nc2ccccc21`, the figure is -1.04%; as for `COc1cc(C)nc(N(Cc2ccccc2)S(=O)(=O)c2ccc(C)cc2)n1`, -4.77%.
